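How tested: cells in 96-well plates exposed to compound for 48 hours at five concentrations. Here, GI50 denotes the concentration required for 50% inhibition of growth.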 Activity calls are given as the source filed them. Rule as the data show it: active = GI50 up to about 1.1 µM and inactive = higher. A value given as a limit tells only on which side of the number the result lay.

The test system of the assay is NCI-H322M. The assay is described as follows: inhibition of tumour cell growth, NCI panel, 48 h.
Consider `COc1ccc(/C=C/C(=O)Oc2ccc(/C=C3\CCCCC3=O)cc2)cc1`, for which the GI50 was inactive: > 100 µM.
The same measure for `CC1=CC(=O)C2=C(C)CCC3C(C)C(=O)OC3C12` (stereo not drawn): inactive: > 100 µM; for `CCOC(=O)C(NCc1ccc2c(c1)OCO2)(NC(=O)c1ccccc1)C(F)(F)F` (stereo not drawn): inactive: > 100 µM; for `COc1ccc(NC(S)=Nc2ccccc2)cc1`: inactive: > 100 µM.
The same measure for `S=C(Nc1cccc(Cl)c1)Nc1ccccn1`: inactive: > 100 µM.
The same measure for `O=C1C(Cl)=C(NCCN2CCOCC2)C(=O)c2c(O)ccc(O)c21`: inactive: 2.05 µM; for `CN(CCNCc1cn(C)c2c1ccc1ccccc12)CCNCc1cn(C)c2c1ccc1ccccc12`: inactive: 1.66 µM; for `CC(C)(C)C(=O)ON1N=NC2C3CC(OCc4ccccc4)(OCc4ccccc4)C(O3)C21` (stereo not drawn): inactive: 33.3 µM.
For the compound `COc1ccc(CC(=O)NCCc2ccc(OC)c(OC)c2OC)cc1`, the GI50 was inactive: > 100 µM.
To `O=C(CSc1nnc(Cc2ccccc2)o1)Nc1cccc(Cl)c1` belongs inactive: > 100 µM; to `CC(C)/C=C1\CCC(CN(C)C)C1=O` (stereo not drawn), inactive: 17.6 µM.
To `NC(=O)c1c([N+](=O)[O-])cc(C(F)(F)F)cc1[N+](=O)[O-]` belongs inactive: > 100 µM.
The same measure for `C#C[C@]1(O)CC[C@H]2[C@@H]3CCC4=C/C(=N\OCCN(CC)CC)CC[C@]4(C)[C@H]3CC[C@@]21C`: inactive: 6.89 µM.
On to `N#Cc1c(-c2ccccc2)c(C=O)c(=O)n2c1[nH]c1ccccc12`, for which the GI50 is inactive: 92.3 µM.
The same measure for `N#CC(C#N)=Cn1c(=S)[nH]c2ccc([N+](=O)[O-])cc21`: inactive: > 100 µM; for `COC(=O)c1nc(-c2ccc(Cl)c(Cl)c2)nc2ccccc12`: inactive: > 100 µM.
To `CCC1=C(C=O)c2cc3[nH]c(cc4nc(c5c6[nH]c(cc1n2)c(C)c6C(=O)C5C(=O)OC)C(CCC(=O)OC)C4C)c(C)c3CC` (stereo not drawn) belongs inactive: > 100 µM; to `C/C1=C\CC[C@@]2(C)O[C@@H]2C[C@@H]2[C@H](C/C(C)=C/CC1)OC(=O)C21CC1`, inactive: > 100 µM.
To `Cc1cn([C@@H]2O[C@H](CO[Si](C)(C)C(C)(C)C)[C@]3(O[C@H]3C(=O)NO)[C@H]2O[Si](C)(C)C(C)(C)C)c(=O)[nH]c1=O` belongs inactive: 1.72 µM; to `COc1ccc2c(c1)CC[C@@H]1[C@@H]2CC[C@]2(C)C(=O)/C(=C/c3cc(OC)c(OC)c(OC)c3)C[C@@H]12`, inactive: 31.4 µM.
For `O=C(NCCCCCCNC(=O)c1cccc2ccccc12)c1cccc2ccccc12`, the GI50 was inactive: 49 µM.
To `COC1(CC[C@H](C)COC2OC(CO)C(O)C(O)C2O)O[C@H]2C[C@H]3[C@@H]4CC=C5C[C@@H](OC6OC(CO)C(O)C(OC7OC(CO)C(O)C(O)C7O)C6OC6OC(C)C(O)C(O)C6O)CC[C@]5(C)[C@H]4CC[C@]3(C)[C@H]2[C@@H]1C` (stereo partly drawn) belongs inactive: 3.54 µM; to `O=C(CN1C(=O)CC(c2ccccc2)(c2ccccc2)C1=O)N1CCN(CCO)CC1`, inactive: > 100 µM.
On to `COC1(OC)CCN(Cc2ccccc2)C1=O`, for which the GI50 was inactive: 27.1 µM.
The same measure for `CC(C)[C@H]1CO[C@@H]2O[C@H](C)CC(=O)N21`: inactive: > 100 µM; for `O=C(c1ccccc1)c1ccc2[nH]c(-c3c(Cl)c(Cl)c(Cl)c(Cl)c3C(=O)N/N=C/c3ccc(Cl)cc3)nc2c1`: inactive: 39.4 µM; for `O=C1C=C(c2[nH]c3ccccc3c2C2=CC(=O)c3ccccc3C2=O)C(=O)c2ccccc21`: inactive: > 100 µM.
To `CO/C(=N\N=C(/C)C(F)(F)F)c1ccncc1` belongs inactive: > 100 µM; to `O=c1[nH]c(=O)n(C2OC(CO)C(O)C2O)cc1OCc1ccccc1` (stereo not drawn), inactive: > 100 µM; to `Nc1ccc(C(=O)NN2C(=O)C(Cl)C2c2cc(Br)cc(Br)c2O)cc1` (stereo not drawn), inactive: 5.27 µM.
The same measure for `COc1ccc(OC(C)C(=O)O)c2c(=O)ccccc12` (stereo not drawn): inactive: > 100 µM; for `COc1cccc(C=C(C#N)C#N)c1OC`: inactive: > 100 µM.
On to `COCC(O)CN1C(N)=NC(O)C1O` (stereo not drawn), for which the GI50 was inactive: > 100 µM.
To `CCOC(=O)C(Cc1cc(OC)c(CC(C(=O)OCC)C(=O)OCC)cc1OC)C(=O)OCC` belongs inactive: > 100 µM; to `CCOC(=O)NC(Nc1ccc(S(=O)(=O)Nc2nc(C)cc(C)n2)cc1)(C(=O)OCC)C(F)(F)F` (stereo not drawn), inactive: > 100 µM; to `CC1=C2c3c(C)ccc4ccc(C)c(c34)C2(O)C(C)C1=O` (stereo not drawn), inactive: > 100 µM.
Turning to `CCOC(=O)c1ccc(NC(=O)Oc2ccc3c(C)cc(=O)oc3c2)cc1`, the GI50 was inactive: 71 µM.
To `Clc1ccc(-c2nc(-c3ccc(Cl)cc3)[s+]s2)cc1` belongs inactive: 52.1 µM.
The same measure for `CC(C)CC1C(=O)OC(C)(C)OC1=O`: inactive: > 100 µM; for `COc1ccc2c(c1)[n+]([O-])c(-c1cccc(Cl)c1)c(N)[n+]2[O-]`: inactive: 24.7 µM.
The same measure for `O=S1(=O)NN=C(NCc2ccc(Cl)c(Cl)c2)c2ccccc21`: inactive: > 100 µM; for `COC(=O)/C=C1\CCCN1CCc1cc2c(cc1CC#N)OCO2`: inactive: 45.7 µM.
As for `C1=CC2SSSC2C1` (stereo not drawn), the GI50 was inactive: > 100 µM.
To `COc1cc2c(cc1OC)CC1c3cc(OC)c(OC)cc3CCN1CC2` (stereo not drawn) belongs inactive: > 100 µM; to `COc1ccc(/C=C/C(=O)C(C)(C)Br)cc1`, inactive: 22.1 µM; to `CC(=O)C1CCN(c2ccccc2)C1` (stereo not drawn), inactive: > 100 µM.
`COC(=O)c1c(C)cccc1C1CN=NC12Cc1c(C)cccc1C2=O` (stereo not drawn): the GI50 was inactive: > 100 µM.
To `O=C1OC[C@@H]2Cc3c([nH]c4ccccc34)[C@@H](c3cc(O)c(O)c(O)c3)N12` belongs inactive: 34.8 µM.
Turning to `CC(=O)N(C)C=C1C(=O)N(C)C(=O)N(C)C1=O`, the GI50 was inactive: > 100 µM.
The same measure for `Cc1nnc(N/N=C2/C(=O)Nc3ccccc32)nc1O`: inactive: > 100 µM; for `N#CC12C(=O)N3C(=NC(c4ccco4)NC3c3ccco3)C1(C#N)C(c1ccco1)NC1=C2CCCC1` (stereo not drawn): inactive: > 100 µM.
The same measure for `CC(NNC(=O)c1cc[n+]([BH2-]C#N)cc1)c1cccc(F)c1` (stereo not drawn): inactive: > 100 µM; for `CC1(C)CCCC2(C)[C@@H]1CC[C@]13C[C@](C)(CC[C@@H]21)[C@@H]3CO` (stereo partly drawn): inactive: > 100 µM; for `C=C1C(C(=O)OC)[C@H]1C(=O)OC` (stereo partly drawn): inactive: > 100 µM.
The same measure for `CCCCCCCCCCCCCCCCOCC(CP(=O)([O-])OCC[n+]1ccccc1)OC` (stereo not drawn): inactive: 18.8 µM; for `CC(C)(C)OC(=O)CCC1NC(=O)[C@@H]2Cc3c([nH]c4ccccc34)C(c3ccccc3)N2C1=O` (stereo partly drawn): inactive: 36.1 µM; for `Cc1cc(-c2nc3cc(F)c(F)cc3s2)ccc1N`: inactive: > 92 µM.
As to `Cc1cc(C)cc(-n2c3nc(=O)n(C)c(=O)c-3nc3ccccc32)c1`, the GI50 is inactive: 30.5 µM.
